# Source: the supplement of paper PMC11417369
# The list shows a part of the results.
# Test system: PfHDP1 homeodomain (GST-tagged)
# Test: gcPBM binding intensity (ln(normalized median fluorescence intensity)); higher = stronger DNA binding
# In short: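 Each value is the highest Masliner-normalised natural-log median intensity across replicate spots of either orientation of a probe. The probes were primer-extended double-stranded 36-bp intergenic genomic sequences on an Agilent 4 × 180k array, alongside negative controls, exposed for 1 h to GST-tagged P. falciparum DNA-binding domains expressed in E. coli. Bound protein was picked up with Alexa488 anti-GST antibody and scanned at 488 nm.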
row,Sequence,gcPBM binding intensity (ln)
1,TACATACATACATACACACATACATATATATATATA [CACACA_site1387],9.05
2,TGTTTTTTATTTAATTGTACGAATTAAAAAAAATAA [XGTACX_site3009],6.39
3,TTCCAACCATAGTATTCACACATTGTTTTATTCCAT [CACACA_site4927],6.7
4,AATATTCATATGCAGGTGCATTAATTTTTATTAATT,10.2
5,CAAATTTTTTATTAAACACACAAACATATATTTATA [CACACA_site6992],6.4
6,AAAAAAGAAAAGAAATCATGAAAGAATCAAATAAAG [CACACA_negctrl_site1771],6.31
7,TTTTTATATATATTCTCACACACTTTTTATTTTAAC [CACACA_site657],6.85
8,TAAGGAAAAAATTATAGTACATAATAAATGTATATA [XGTACX_site8328],6.15
9,ATAAATATATTTCACGCACACACACCCCAAATAAAT [CACACA_site9272],7.73
10,CATAATATATTTTATGCATGCAAAGCAACCTTTTGA [TGCATGCA_site715],6.41
11,TTTTTTGTTATATTTGTGCGCAAAAATTGCTGCTTG,8.97
12,TATTAACAAAATTTTTAACACACAAAAAAAAAAAAA [CACACA_site8542],6.18
13,TATTTATTTAAAGGCACACATATTTTTATACTTTCT [CACACA_site3163],6.27
14,ATTATATATATATATAAACACACATAAATATAAATA [CACACA_site8291],6.59
15,AAAATTTATGTAAAATGTACATACATAAATAAAGAT [XGTACX_site4339],7.11
16,GTTTCCTTAATATTCACACACATATATATAATATAT [CACACA_site1856],7.1
17,ATGTTATAAGATTTATGTACACACATATACACACCT [XGTACX_site1316],7.18
18,TATATATAATATATATGTACGTATATATATAATATA [XGTACX_site8383],6.4
19,TTAACATAAATATATACACACCAATGATGGCATTTA [CACACA_site4952],6.37
20,AATAAAGCAATAAATACACACATATTTATATTTATA [CACACA_site7390],6.65
21,TTTATTTTCCAAAGGGTGCACATAGTTGAAACGATA,9.41
22,TTTTGGATTGAGGACCTTTTTATAGAATTATGTTTT [TGCATGCA_negctrl_site544],6.55
23,ATATATAATTTTTACACACGCAATAAATATATATAT [CACACA_site4283],7.7

row,Sequence,gcPBM binding intensity (ln)
1,TTTATTTATTACTAAAGTACTAAATCATATTATTAT [XGTACX_site2574],5.91
2,ATGAACAAGTGGCACACACACATTATAACTAATTTA [CACACA_site5731],6.38
3,TTCTTTTTTTTTATCACACATATTACAATCTAGTGC [CACACA_site4697],7.13
4,AAAATAATATTTCCTTGTACACATATGTATTTGTTC [XGTACX_site4430],7.1
5,TTTTCATAATATACATGTACATATATAAATTATTAA [XGTACX_site5206],6.41
6,GTATACATGCAAATTTTTATTTACAACCCCAAAAAG [XGTACX_negctrl_site255],7.05
7,TATTATAATATGCCTTGTACATATAACAAATTTATT [XGTACX_site108],6.43
8,TTTTTTTCACAAAATACACACAATATATTTTATATC [CACACA_site1138],6.66
9,ATCTTTTCATATTGCTGTACAAATTATTTTCATTCG [XGTACX_site492],7.26
10,TTAATATTAATTATATGTACATATAATATATATATA [XGTACX_site1757],8.29
11,ATGTTAAACAAATCTATACACACGTATATGACAAAA [CACACA_site1783],6.53
12,GAGAAATGGAGACACACACACATATTATATATATAT [CACACA_site1532],8.68
13,TGTATAAAATTCCATTGTACATATTATTTTACGACA [XGTACX_site7764],6.14
14,AAAAGTCTTCAAATTTGTACATATATATATATATAT [XGTACX_site3404],9.29
15,GGTACATACAGACACACACACAAAAAAAAAAAAATA [CACACA_site6844],6.63
16,ATAAAAAAAAAAAGAAGTACATGTATTAAAATTTAT [XGTACX_site3927],6.89
17,AACAAAGGATTTATATATACATACATACATACATAA [GTGCAC_negctrl_site469],6.31
18,TGAATTTACAAAATCATGCACTTAATTACAGAATAA,7.61
19,GCAAATCTTATATGAAGTACATATCTTATAAATAAA [XGTACX_site6903],6.14
20,TTTATTATATTTTTTTGTACATATTGATGTATATAA [XGTACX_site6527],6.57
21,AGCAAAATGAAATAAATTGGAAAATATTACTGAACG [CACACA_negctrl_site1433],6.35
22,CGAACACAAACACAAACACACATCATATATATATAT [CACACA_site4857],9.06
23,ATTTTGGAAATAATATGTACATATACATAATATATA [XGTACX_site4177],6.47

row,Sequence,gcPBM binding intensity (ln)
1,AATATACAAAAAAAAAAAAAAAAAAAAAAGATGGAA [TGCATGCA_negctrl_site550],6.03
2,ATTCATATGAAACACACACACACACCCATAAAAAAA [CACACA_site3246],7.04
3,TTTTTTTTTTTTTACACACACAAAATATTATAGGTA [CACACA_site7209],6.73
4,ATTTTTTACATACTCAAATGTTTTAATTTTTTATAT [CACACA_negctrl_site1213],6.57
5,TCTTTTCAATTTTATATGATCTTAATATTTTATGAA [GTGCAC_negctrl_site294],6.24
6,TTTCTTTTCTTCTCTATTTTTTTTTCACGGCATTAT [TGCATGCA_negctrl_site484],6.63
7,ACATTAAAAAATTGTTTGCACTATATAAAATATTAA [GTGCAC_site9728],8.82
8,AATATAAGAAAAATAACACACACATAAACATATATA [CACACA_site8899],7.06
9,ACATATAAAATATTCACACACAAGTTATAGTTCTCG [CACACA_site3626],6.41
10,AATAAATTATATATCACACATATATATTTATATTTA [CACACA_site5964],6.29
11,ATTTTGTTATTATATATATATATATATATATATATA [XGTACX_negctrl_site590],9.34
12,AAATGTGAACTATAATAATTTCAACGTCTGATATAA [TGCATGCA_negctrl_site440],5.94
13,TTTCTTTCGAATGCTTCACACATTACTCTTAAATAG [CACACA_site5265],6.78
14,CAAAACCTAATATGTACACACATATACATCACACTT [CACACA_site7480],6.64
15,AAATTTATAAAGAACACACACATATATATATATATA [CACACA_site48],9.26
16,ATATATATATATATAGTGCACATTTATATAATTATT,10
17,ATATTTCTGTCAAGCACACATAATATTAATATATGT [CACACA_site318],6.75
18,ATTTTAAATTAAATTACACACTACGAATAATATATT [CACACA_site4016],6.51
19,TGTATAAAAATTTATACACACATTTTATATATTTCA [CACACA_site1015],6.55
20,TAATCCATAAGAAGCACACACATATATATATATTTT [CACACA_site1399],6.54
21,TATTAATTATTATGACATACATATCAGTTATTAAAA [CACACA_negctrl_site600],6.22
22,ACAAATAAGTTTTATACACACATATAAGTAAATACA [CACACA_site4157],6.4
23,GAGAGGAACATTATATGTACATATTAATTCTAAAAT [XGTACX_site5433],6.47

row,Sequence,gcPBM binding intensity (ln)
1,ACAATATTTTTTTATAAACACACATATATATAAATA [CACACA_site9175],6.87
2,TATAGTGATATATACACACACTTGTCTTGTAAAAAT [CACACA_site6594],6.63
3,TATATATATATATATTGTACTTTATATGTTCTTATA [XGTACX_site7545],9.13
4,AAATATTACATTTGTTAAATAATATGTTATACATAA [XGTACX_negctrl_site484],5.89
5,TTTTATAAAGGAAAAGCATGCAGACTAAAAGATCAT [TGCATGCA_site150],7.22
6,TAATGGAGAAAAAAAAAACACACGGTACATTCAAAG [CACACA_site3117],6.68
7,AAGGGAAAATAATAAAAGAAAAAGAAAAAAAAAAAA [CACACA_negctrl_site1518],5.82
8,AATGTGTATATATATACACACACATATATATATTTT [CACACA_site8596],7.12
9,TCCTTTTTACTACTAGTGCATTATTTACAAGGTCCG [GTGCAC_site9441],9.57
10,TAGTTTTTTATATATTGTACTTAGAATATATTATAT [XGTACX_site3662],6.22
11,AGGATAATATACAAAAGTACATAAAACTAAAAAAAC [XGTACX_site605],6.68
12,AAAGAAAGAAAGAATACACACACACCGATATATATA [CACACA_site9246],6.95
13,AACATATATTTTGAAACACACACATATATAATATAC [CACACA_site8301],6.81
14,GGACACCTTCAAAACACACATACAAATAAATAGAAA [CACACA_site3305],6.67
15,ATATAAATATATATATGTACATAATATATTATGTTT [XGTACX_site2806],6.47
16,AATTTAACCACTAAAAGTACACACATATATACATAT [XGTACX_site8352],6.44
17,TAGTATTTATATGTTATATATATAAAATAATACAGT [XGTACX_negctrl_site571],6.5
18,TATATAGAATTATATGCATGTTCAAAAAAATACAAC [TGCATGCA_site431],6.64
19,ATATCTAATAAAAATACACACACATATGATTTGTGA [CACACA_site8558],6.44
20,TTCTATTTTTTAAAAGTGCATATTATAAATATATAT,7.57
